In patent publication US7888332B2, “Hydrazide-containing CFTR inhibitor compounds and uses thereof” (The Regents of the University of California, priority 2004, dated 2011):

The molecules below were run against CFTR (Homo sapiens, UniProt P13569) (assay: Short-circuit current (apical Cl− current) analysis on permeabilized CFTR-expressing FRT cells). Settings: compared with parent analogs.
Chain of UniProt P13569 (P13569 whole entry): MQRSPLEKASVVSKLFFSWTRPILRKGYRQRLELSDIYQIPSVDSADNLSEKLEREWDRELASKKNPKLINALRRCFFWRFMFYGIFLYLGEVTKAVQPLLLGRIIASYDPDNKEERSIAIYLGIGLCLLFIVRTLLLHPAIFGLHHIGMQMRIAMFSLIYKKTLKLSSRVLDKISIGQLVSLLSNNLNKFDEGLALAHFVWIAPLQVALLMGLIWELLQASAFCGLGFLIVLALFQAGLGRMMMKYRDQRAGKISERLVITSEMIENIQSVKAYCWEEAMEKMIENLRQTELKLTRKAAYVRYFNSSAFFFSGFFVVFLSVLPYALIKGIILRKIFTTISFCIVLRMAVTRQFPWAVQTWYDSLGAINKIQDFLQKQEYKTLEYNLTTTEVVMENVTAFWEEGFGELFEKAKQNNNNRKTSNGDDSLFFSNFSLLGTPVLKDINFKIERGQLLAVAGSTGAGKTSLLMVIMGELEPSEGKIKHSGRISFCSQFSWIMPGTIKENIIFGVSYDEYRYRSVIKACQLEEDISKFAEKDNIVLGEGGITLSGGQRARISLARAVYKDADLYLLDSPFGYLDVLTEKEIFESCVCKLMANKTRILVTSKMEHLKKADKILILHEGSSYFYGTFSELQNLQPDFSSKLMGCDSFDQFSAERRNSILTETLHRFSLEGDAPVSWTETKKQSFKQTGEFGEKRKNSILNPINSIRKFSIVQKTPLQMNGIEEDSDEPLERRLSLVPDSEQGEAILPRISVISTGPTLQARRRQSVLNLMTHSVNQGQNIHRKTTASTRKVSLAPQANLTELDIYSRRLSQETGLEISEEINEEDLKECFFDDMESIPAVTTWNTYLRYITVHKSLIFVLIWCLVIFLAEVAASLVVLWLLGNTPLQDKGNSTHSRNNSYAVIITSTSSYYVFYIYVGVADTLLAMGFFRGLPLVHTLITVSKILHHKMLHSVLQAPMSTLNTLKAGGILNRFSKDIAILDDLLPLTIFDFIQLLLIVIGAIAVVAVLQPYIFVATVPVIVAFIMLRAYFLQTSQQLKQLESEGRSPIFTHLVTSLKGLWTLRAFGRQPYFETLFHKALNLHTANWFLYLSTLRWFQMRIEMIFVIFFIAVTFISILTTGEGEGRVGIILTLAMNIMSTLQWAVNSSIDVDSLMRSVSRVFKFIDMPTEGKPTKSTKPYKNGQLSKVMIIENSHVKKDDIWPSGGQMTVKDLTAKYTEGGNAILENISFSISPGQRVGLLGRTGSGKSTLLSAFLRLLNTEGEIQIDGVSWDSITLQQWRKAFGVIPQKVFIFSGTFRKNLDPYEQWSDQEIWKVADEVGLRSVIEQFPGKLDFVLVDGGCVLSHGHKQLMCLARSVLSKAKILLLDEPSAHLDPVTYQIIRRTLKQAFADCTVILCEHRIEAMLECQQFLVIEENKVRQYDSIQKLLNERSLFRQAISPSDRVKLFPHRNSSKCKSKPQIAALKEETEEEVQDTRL

| Structure (SMILES) | CFTR inhibition, structure-activity statement in words |
| --- | --- |
| O=C(CNc1ccc2ccccc2c1)NN=Cc1cc(Br)c(O)c(Br)c1O [GlyH-101, N-2-napthalenyl-[(3,5-dibromo-2,4-dihydroxyphenyl)methylene]glycine hydrazide] | increased inhibition |
| O=C(CNc1ccc2ccccc2c1)N/N=C/c1cc(Br)c(O)c(Br)c1 [GlyH-102] | Good CFTR inhibition |
| COc1c(Br)cc(C=NNC(=O)CNc2ccc3ccccc3c2)c(O)c1Br [GlyH-103] | little activity |
| O=C(CNc1cccc2ccccc12)NN=Cc1cc(Br)c(O)c(Br)c1O [GlyH-104] | increased inhibition |
| O=C(CNc1cccc2ccccc12)NN=Cc1cc(Br)c(O)c(Br)c1 [GlyH-105] | Good CFTR inhibition |
| CC(=NNC(=O)CNc1ccc2ccccc2c1)c1cc(Br)c(O)c(Br)c1 [GlyH-109] | improved CFTR inhibition |
| O=C(CNc1ccc(Cl)cc1)NN=Cc1cc(Br)c(O)c(Br)c1 [GlyH-114] | Good CFTR inhibition |
| O=C(CNc1ccc2ccccc2c1)NNC(=O)c1cc(Br)c(O)c(Br)c1O [GlyH-201, 3,5-dibromo-2,4-di-hydroxy-[2-(2-napthalenamine)aceto]benzoic acid hydrazide] | reduced CFTR inhibitory potency |
| O=C(CNc1ccc2ccccc2c1)NNC(=O)c1cc(Br)c(O)c(Br)c1 [GlyH-202, 3,5-dibromo-4-hydroxy-[2-(2-napthalenamine)aceto]benzoic acid hydrazide] | reduced CFTR inhibitory potency |
| O=C(CNc1ccc2ccccc2c1)NNCc1cc(Br)c(O)c(Br)c1O [GlyH-301, N-2-napthalenyl-[(3,5-dibromo-2,4-dihydroxyphenyl)methyl]glycine hydrazide] | reduced CFTR inhibitory potency |
| O=C(CNc1ccc2ccccc2c1)NNCc1cc(Br)c(O)c(Br)c1 [GlyH-302] | reduced CFTR inhibitory potency |
